Measurements: patent US5391540A, “Substituted pyridine compounds” (Rohm and Haas Company, priority 1993, dated 1995)
Values joined by “and” are separate entries in the source; they are usually repeats but may differ in a detail not shown here. Equal values may be shown once. The name of at least one read-out is uncertain. Some ranges recur; such a range may be that of the whole group of compounds.

Columns and labels:
Type in all cases: in vivo
Wibw = assay: plant injury after spraying emerged plants (Table D); design: scale not given here
Text: (§1) Topsoil (silt loam) is sieved through a screen having 1.27 cm openings. […] This mixture is steam sterilized and then placed in aluminum pans 6.985 cm deep having ten holes in the bottom each 0.635 cm in diameter. The soil mixture is compacted to a depth of 1.27 cm. from the top of the pan. A predetermined number of seeds of each of several dicotyledonous and monocotyledonous annual plant species and/or vegetative propagules for the perennial plant species are placed on the soil and pressed into the soil surface. The seeds and/or vegetative propagules are covered with 1.27 cm of a mixture of 50% topsoil and 50% of a mixture of Canadian sphagnum peat moss, vermiculite and a wetting agent. The pans are then placed on a capillary mat on a greenhouse bench and subirrigated as needed.
(§2) In the following Table D the legends used to identify the plant species are the same as those used in the preceding Table B.

Vele = assay: as above; design: scale not given here
Text: as §1, §2

Grft = assay: as above; design: scale not given here
Text: as §1, §2

Sobe = assay: as above; design: scale not given here
Text: as §1, §2

Prmi = assay: as above; design: scale not given here; details: 11.2100 kg/ha
Text: as §1, §2

Bygr = assay: as above; design: scale not given here; details: 2.8025 kg/ha
Text: as §1, §2

Barnyardgrass = assay: Post-emergence herbicidal activity (Table C); details: Bygr, 11.2 kg/ha, 10-14 days
Morningglory = assay: Post-emergence herbicidal activity (Table C); details: Mogl, 11.2 kg/ha, 10-14 days
Rhizome Johnsongrass = assay: Post-emergence herbicidal activity (Table C); details: Rhjg, 11.2 kg/ha, 10-14 days
Canada thistle = assay: Post-emergence herbicidal activity (Table C); details: Cath, 11.2 kg/ha, 10-14 days
Quackgrass = assay: Post-emergence herbicidal activity (Table C); details: Rhqg, 11.2 kg/ha, 10-14 days
Cocklebur = assay: Post-emergence herbicidal activity (Table C); details: Cobu, 11.2 kg/ha, 10-14 days
Velvetleaf = assay: Post-emergence herbicidal activity (Table C); details: Vele, 11.2 kg/ha, 10-14 days
Yellow Nutsedge = assay: Post-emergence herbicidal activity (Table C); details: Yens, 11.2 kg/ha, 10-14 days
Downy Brome = assay: Post-emergence herbicidal activity (Table C); details: Dobr, 11.2 kg/ha, 10-14 days

COC(=O)c1c(OC)nc(C(F)(F)F)c(N=CSC)c1CC(C)C [Compound 77, 3-pyridinecarboxylic acid, 2-methoxy-4-(2-methylpropyl)-5-[[(methylthio)methylene]amino]-6-(trifluoromethyl)-, methyl ester]
plant injury rating, Wibw (Wibw; 2.8025 kg/ha): 2 and 1
plant injury rating, Wibw (Wibw; 5.6050 kg/ha): 2 and 3
plant injury rating, Wibw (Wibw; 11.2100 kg/ha): 3 and 2
plant injury rating, Vele (Vele; 2.8025 kg/ha): 3 and 2
plant injury rating, Vele (Vele; 5.6050 kg/ha): 2 and 3
plant injury rating, Vele (Vele; 11.2100 kg/ha): 2 and 3
plant injury rating, Grft (Grft; 5.6050 kg/ha): 1 and 2
plant injury rating, Grft (Grft; 11.2100 kg/ha): 2 and 3
plant injury rating, Sobe (Sobe; 5.6050 kg/ha): 2 and 3
plant injury rating, Sobe (Sobe; 11.2100 kg/ha): 2 and 3
plant injury rating, Prmi (Prmi): 1 and 2
plant injury rating, Bygr (Bygr): 1 and 2
post-emergent herbicidal activity index (Barnyardgrass): 3 (75-99% inhibition)
post-emergent herbicidal activity index (Morningglory): 2 (50-74% inhibition)
post-emergent herbicidal activity index (Rhizome Johnsongrass): 0 (0-24% inhibition)
post-emergent herbicidal activity index (Canada thistle): 0 (0-24% inhibition)
post-emergent herbicidal activity index (Quackgrass): 0 (0-24% inhibition)
post-emergent herbicidal activity index (Cocklebur): 0 (0-24% inhibition)
post-emergent herbicidal activity index (Velvetleaf): 1 (25-49% inhibition)
post-emergent herbicidal activity index (Yellow Nutsedge): 0 (0-24% inhibition)
post-emergent herbicidal activity index (Downy Brome): 0 (0-24% inhibition)
